Assay results reported in PubChem BioAssay AID686978 (National Center for Advancing Translational Sciences (NCATS), 2013).
“And” between values parts separate entries of the source, which are not always exact repeats. Equal values may be shown once. In all, about 420,000 compounds went through this assay and about 64,000 (15%) were called active. Inconclusive means that the source gave no clear call. Such entries were picked first, then a sample of the others. Calls come from the whole dose curve; as a rule, active = well fitted inhibition curve with a large enough effect; inconclusive = small, poorly fitted or top-dose-only effect; inactive = flat fitted curve, though single readings scatter. Potencies of inconclusive entries are doubtful fits and often do not repeat.
% is set by controls: 0 for no effect and ±100 for the full control effect; potency is the fitted concentration of half-maximal effect; tags give direction and shape of the fitted curve.

Experiment: qHTS for Inhibitors of human tyrosyl-DNA phosphodiesterase 1 (TDP1): qHTS in cells in absence of CPT; note: nearly all actives have a fitted effect of over 55% in size
Details: DT40 Tdp1-/- hTDP1 cells, no CPT, ATP luminescence, 48 h; activity change, negative = growth inhibition: at 46.2 µM (top of the series) unless noted
How it was run: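 Compound effects on proliferation are scored in DT40 Tdp1-/-;hTDP1 cells in the absence of CPT. ATP levels (CellTiter-Glo luminescence) are recorded after a ≥48 hr, 37 °C incubation.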
For `O=S(=O)(Cc1ccccc1)c1ccccc1-c1nnc(-c2ccccc2)o1`, the Potency was active: 16.4 µM. In the case of `CC(C)NC(=O)C1(C)Cc2c(-c3ccc(C(N)=O)cc3)ccnc2O1` (centres undefined), the Potency is reported as “inactive”. In the case of `COc1ccc(CN(Cc2ccco2)c2cnc(S(C)(=O)=O)nc2C(=O)Nc2ccc(F)cc2)cc1`, the Potency is reported as inconclusive: 23.1 µM [inhibitor, single point]. With `Cc1noc(C)c1COc1ccc(C(=O)OCC(=O)N2CC3(C)CC2CC(C)(C)C3)cc1` (centres undefined) the Potency was active: 18.4 µM. With `COCc1ccc(CN2Cc3ccccc3OC(c3ccccc3F)C2)o1` (centres undefined) the Potency was “inactive”. For `O=[N+]([O-])c1cc(C(F)(F)F)ccc1NCCOc1ccccc1`, the Potency was “inactive”. In the case of `N#Cc1ccc(C(=O)NCC2CCCCC2)cc1`, the Potency is reported as “inactive”. With `O=[N+]([O-])c1ccc(Oc2cnc3ccccc3n2)cc1` the Potency was inconclusive: 20.6 µM [inhibitor, single point]. For `O=C(COC(=O)c1n[nH]c2ccccc12)Nc1ccc([N+](=O)[O-])cc1`, the Potency was inconclusive: 7.31 µM [inhibitor, partial curve, poor fit]. With `Cn1c(=O)n(C/C=C/c2ccccc2)c(=O)c2c1nc1n2CCN1c1ccccc1` the Potency was “inactive”. In the case of `CCCCOc1ccc(CNC(=O)C2COc3ccc(OC)cc3C2)cc1` (centres undefined), the Potency is reported as inconclusive: 23.1 µM [inhibitor, single point]. With `CCn1c(O)c(/C=C2\C=NN=C2c2ccccc2)sc1=S` the Potency was inconclusive: 18.4 µM [inhibitor, partial curve]. In the case of `O=C(NC1CCCCC1)C1CCCN(S(=O)(=O)c2ccc(Br)s2)C1` (centres undefined), the Potency is reported as inconclusive: 23.1 µM [inhibitor, single point]. With `O=C(NCCc1ccccc1)[C@@H]1CC=C[C@@H]2CCN(C3CCCCC3)C(=O)[C@@H]21` the Potency was inconclusive: 20 µM [inhibitor, single point] and inconclusive: 7.31 µM [inhibitor, partial curve]. For `CCOc1ccc(C(=O)c2cn(CC(=O)Nc3ccc4c(c3)OCO4)c3ccc(OCC)cc3c2=O)cc1`, the Potency was active: 3.26 µM. For `Cc1ccc(NC(=S)NC(=O)c2c(-c3ccccc3Cl)noc2C)cc1`, the Potency was inconclusive: 29.1 µM [inhibitor, partial curve, poor fit]. In the case of `CCOC(=O)C1CCN(C(c2cc(OC)c(OC)c(OC)c2)c2sc3nc(C)nn3c2O)CC1` (centres undefined), the Potency is reported as “inactive”. In the case of `C[C@H](CCC(=O)NCC(=O)O)C1CC[C@H]2C3CC[C@@H]4C[C@H](O)CC[C@]4(C)C3C[C@H](O)[C@]12C` (some centres undefined), the Potency is reported as “inactive”. For `CCCN1C2=C(C(=O)CC(C)(C)C2)C(c2ccc(F)cc2)C2=C1c1ccccc1C2=O` (centres undefined), the Potency was inconclusive: 20 µM [inhibitor, single point]. For `COc1ccc(CN2CN(S(=O)(=O)c3cccs3)c3nc4ccccc4nc32)cc1`, the Potency was inconclusive: 23.1 µM [inhibitor, partial curve]. For `CCn1c(SCc2cccc(C(=O)O)c2)nnc1-c1ccc(Cl)cc1`, the Potency was “inactive”. For `N#Cc1cnc(SCCc2ccccc2)nc1N`, the Potency was inconclusive: 20.6 µM [inhibitor, single point]. For `Cc1cccc(N(C(=O)Cn2nnc3ccccc32)C(C(=O)NC(C)(C)C)c2ccsc2)c1` (centres undefined), the Potency was inconclusive: 11.2 µM [inhibitor, single point]. With `CCc1ccccc1NC(=O)CNC(=O)c1cccc(S(=O)(=O)N2CCN(Cc3ccccc3)CC2)c1` the Potency was inconclusive: 16.4 µM [inhibitor, partial curve, poor fit]. In the case of `O=C(COC(=O)C1CCCN1C(=O)C12CC3CC(CC(C3)C1)C2)c1ccc(Br)cc1` (centres undefined), the Potency is reported as inconclusive: 18.4 µM [inhibitor, single point]. In the case of `O=C(Nc1ccc(F)cc1F)c1ccc(-n2cccn2)c([N+](=O)[O-])c1`, the Potency is reported as “inactive”. With `COc1ccc(C)cc1-n1nnnc1SCc1cc(=O)n2cc(C)ccc2n1` the Potency was active: 7.31 µM. For `CCC(C)[C@H](NC(=O)C1CC(=O)N(c2ccc(OC)cc2)C1)C(=O)N1CCCCC1` (some centres undefined), the Potency was “inactive”. In the case of `COc1ccc(C=NN=C2c3ccccc3-c3ccccc32)cc1OC`, the Potency is reported as active: 23.1 µM. In the case of `CCC(C)NC(=S)N(Cc1cc2cc(C)ccc2n2nnnc12)CC(C)(C)NC(C)C` (centres undefined), the Potency is reported as active: 16.4 µM. In the case of `CCOC(=O)[C@H]1[C@H]2COc3cc(OC)ccc3[C@@H]2N2C(=O)CN(Cc3ccc(C)cc3)C(=O)[C@@]12C`, the Potency is reported as inconclusive: 10.3 µM [inhibitor, partial curve]. For `CC(C)c1nnc(N2C(=O)c3oc4ccccc4c(=O)c3C2c2ccco2)s1` (centres undefined), the Potency was inconclusive: 29.1 µM [inhibitor, single point]. In the case of `CC1(Cc2ccccc2Cl)C(=O)Nc2c(Cl)cccc21` (centres undefined), the Potency is reported as inconclusive: 32.6 µM [inhibitor, single point]. For `CCC(CC)COC(=O)C(C#N)c1nc2ccccc2nc1N1CCN(CC)CC1` (centres undefined), the Potency was inconclusive: 23.1 µM [inhibitor, single point]. For `CCc1cc2c3c(c1)C1(C(=O)N3C(C)(C)C=C2C)C(C#N)=C(N)Oc2[nH]c(=O)[nH]c(=O)c21` (centres undefined), the Potency was active: 3.26 µM. In the case of `Cc1ccccc1OCc1nc(-c2ccc(NC(=O)c3ccc4c(c3)OCO4)cc2)no1`, the Potency is reported as active: 23.1 µM. For `Cc1ccc(S(=O)(=O)N(C)c2ccccc2C(=O)NC2CCCC2)cc1`, the Potency was inconclusive: 25.9 µM [inhibitor, single point]. For `COc1ccc(CCNC(=O)CSc2nc3[nH]ncc3c(=O)[nH]2)cc1OC`, the Potency was “inactive”. For `Nc1c(C(=O)c2ccc(F)cc2)sc(Nc2ccccc2F)c1S(=O)(=O)c1ccc(Br)cc1`, the Potency was active: 8.2 µM. In the case of `O=C(NCc1ccco1)C1Cc2c(-c3cccc(F)c3)ccnc2O1` (centres undefined), the Potency is reported as active: 1.3 µM. For `Cc1ccc(S(=O)(=O)N2CCCCC2)cc1C(=O)N(C)CC(=O)Nc1cccc(F)c1`, the activity change, negative = growth inhibition was inconclusive: -32.7% [inhibitor]. For `COc1cnn(-c2ccc(Br)cc2)c(=O)c1SCc1ccccc1`, the Potency was inconclusive: 20.6 µM [inhibitor, single point]. For `CC1CCCN(C(=O)c2cc(F)c(F)cc2Cl)C1` (centres undefined), the Potency was inconclusive: 35.5 µM [inhibitor, single point]. With `Cc1ccc(NC(=O)Cn2c(=O)n(-c3ccccc3)c(=O)c3ccc(C(=O)NCc4ccc5c(c4)OCO5)cc32)c(C)c1` the Potency was “inactive”.
